Experimental data: the supplement of paper PMC6135742
Where a name gives a salt, the structure may show the parent alone. ± gives the standard deviation of the averaged measurements. In all, about 2,600 compounds were measured (“total cell number (DAPI+ nuclei) relative to DMSO vehicle control”: median about -1.4, lowest 2% from about -23 on). The list shows a part of the results.

Test system: jimpy (Plp1 jimpy) mouse iPSC-derived oligodendrocyte progenitor cells
Experiment: total cell number (DAPI+ nuclei) relative to DMSO vehicle control (SDs above negative control mean); higher = more surviving cells
Conditions: 10 µM; 3 days

SMILES | total cell number
C[n+]1cccc(C(N)=O)c1 [1-Methylnicotinamide chloride] | 0.293
Clc1ccc(C(c2ccc(Cl)cc2)[n+]2ccn(CC(OCc3ccc(Cl)cc3Cl)c3ccc(Cl)cc3Cl)c2)cc1 (configuration not stated) [Calmidazolium chloride] | -12.9
CC(C)NC[C@H](O)COc1cccc2ccccc12 [(S)-Propranolol hydrochloride] | -2.92
O=C(O)CCCCC(CCSCc1ccccc1)SCc1ccccc1 (configuration not stated) | 0.934
CC1(C)CC[C@]2(C(=O)O)CC[C@]3(C)C(=CC[C@@H]4[C@@]5(C)CC[C@H](O)C(C)(C)[C@@H]5CC[C@]43C)[C@@H]2C1 [Oleanolic Acid] | -2.01
O=c1c(-c2ccc(O)cc2)coc2cc(O)ccc12 [Daidzein] | -0.0611 ± 1.3
C[C@@H](O)[C@H]1C(=O)N2C(C(=O)O)=C(S[C@@H]3CN[C@H](C(=O)N(C)C)C3)[C@H](C)[C@H]12 [Meropenem] | 1.87
CCCCCCCC/C=C\CCCCCCCC(=O)NCCO [N-Oleoylethanolamine] | -2.13
CC(=O)O[C@H]1C[C@@H]2CC[C@@H]3[C@H](CC[C@@]4(C)[C@H]3C[C@H]([N+]3(C)CCCCC3)[C@@H]4OC(C)=O)[C@@]2(C)C[C@@H]1N1CCCCC1 [Vecuronium Bromide] | -0.34
CC1(C)O[C@@H]2C[C@H]3[C@@H]4CCC5=CC(=O)CC[C@]5(C)[C@@]4(F)[C@@H](O)C[C@]3(C)[C@]2(C(=O)CCl)O1 [Halcinonide] | 3.22
C[C@]12C=CC(=O)C=C1CC[C@H]1[C@@H]3C[C@@H](O)[C@](O)(C(=O)CO)[C@@]3(C)C[C@H](O)[C@@]12F [Triamcinolone] | -0.473 ± 1.1
CCN(CC)C(=O)/C(C#N)=C/c1cc(O)c(O)c([N+](=O)[O-])c1 [Entacapone] | -0.656
C[C@@H]1O[C@@H](OC[C@H]2O[C@@H](Oc3c(-c4ccc(OCCO)c(OCCO)c4)oc4cc(OCCO)cc(O)c4c3=O)[C@H](O)[C@@H](O)[C@@H]2O)[C@H](O)[C@H](O)[C@H]1O [Troxerutin] | 1.54
COc1ccc2c(c1)c(CC(=O)N1CCOCC1)c(C)n2C(=O)c1ccc(Cl)cc1 | -2.83
Cc1coc2c1C(=O)C(=O)c1c-2ccc2c1CCCC2(C)C [Tanshinone IIA] | -0.251
CCc1c(O)cc(O)c(C(=O)c2ccc(OCCN3CCOCC3)c(OC)c2)c1CC(=O)N(CCOC)CCOC | -12.2
CNCCCC12CCC(c3ccccc31)c1ccccc12 [Maprotiline HCl] | -10
CNCCCC12CCC(c3ccccc31)c1ccccc12 [Maprotiline hydrochloride] | -7.26
O=C1Cc2c([nH]c3ccc(Br)cc23)-c2ccccc2N1 [Kenpaullone] | -2.52
CC[C@H]1OC(=O)C[C@@H](O)[C@H](C)[C@@H](O[C@@H]2O[C@H](C)[C@@H](O)[C@H](N(C)C)[C@H]2O)[C@@H](CCN2C[C@H](C)C[C@H](C)C2)C[C@@H](C)C(=O)/C=C/C(C)=C/[C@@H]1CO[C@@H]1O[C@H](C)[C@@H](O)[C@@H](OC)[C@H]1OC [Tilmicosin] | -3.95
CCCCCCC(=O)OC1CC(C)(C)NC(C)(C)C1 [TMPH hydrochloride] | 1.35
Oc1cc2c(cc1O)CN(C(=S)NCCc1ccc(Cl)cc1)CCC2 [Capsazepine] | -8.8
Cc1cc(Cn2cnc3c2C[C@@H](C(=O)O)N(C(=O)C(c2ccccc2)c2ccccc2)C3)ccc1N | -6.04
Nc1nc(Cl)nc2c1ncn2[C@@H]1O[C@H](COP(=O)(O)OP(=O)(O)OP(=O)(O)O)[C@H](O)C1O (some centres not stated) [2-Chloroadenosine triphosphate tetrasodium] | -2.1

SMILES | total cell number
NC[C@@H](O)c1ccc(O)c(O)c1 [L(-)-Norepinephrine bitartrate] | 0.337
CN(C)Cc1cccc(N=C(c2ccccc2)c2c(O)[nH]c3cc(C(=O)N(C)C)ccc23)c1 | -11.8
Nc1nc2c(ncn2COCCO)c(=O)[nH]1 [Acyclovir] | -2.02
Nc1nc2c(ncn2COCCO)c(=O)[nH]1 [Aciclovir] | -1.83
Cc1cc(NC2CCCCC2)nc(-n2nc(C)cc2C)n1 | -3.65
NCCSSCCN [Cystamine dihydrochloride] | -0.337
CS(=O)(=O)N1CCN(Cc2cc3nc(-c4cccc5[nH]ncc45)nc(N4CCOCC4)c3s2)CC1 | -23.7
COc1ccc2[nH]c([S@@+]([O-])Cc3ncc(C)c(OC)c3C)nc2c1 [Esomeprazole Sodium] | 1.8
COc1ccc2[nH]c([S@@+]([O-])Cc3ncc(C)c(OC)c3C)nc2c1 [Esomeprazole magnesium dihydrate] | -0.604
CCCCCN(CCCCC)C(=O)C(CCC(=O)O)NC(=O)c1ccc(Cl)c(Cl)c1 (configuration not stated) [Lorglumide sodium] | -0.33
CC1(C)CCC[C@]2(C)[C@H]3CC(=O)O[C@]3(C)CC[C@@H]12 [Sclareolide] | 2.74
COc1c(N2C[C@@H]3CCCN[C@@H]3C2)c(F)cc2c(=O)c(C(=O)O)cn(C3CC3)c12 [Moxifloxacin HCl] | 2.57
COc1ccc(C(=O)CC(=O)c2ccc(C(C)(C)C)cc2)cc1 [Avobenzone] | -0.688
CCOC(=O)C1=C(C)NC(C)=C(C(=O)OCC)C1c1ccccc1/C=C/C(=O)OC(C)(C)C [Lacidipine] | -8.62
Cn1c(=O)n(-c2ccc(C(C)(C)C#N)cc2)c2c3cc(-c4cnc5ccccc5c4)ccc3ncc21 [BEZ235 (NVP-BEZ235, Dactolisib)] | -22.1
O=C(O)C(Cc1c[nH]c2ccccc12)N1C(=O)c2ccccc2C1=O (configuration not stated) | -0.852
CCOc1cc(CC(=O)N[C@@H](CC(C)C)c2ccccc2N2CCCCC2)ccc1C(=O)O [Repaglinide] | 1.39
NC(CCCP(=O)(O)O)C(=O)O (stereo not drawn) [D(-)-2-Amino-5-phosphonopentanoic acid] | -0.967
C#C[C@]1(O)CC[C@H]2[C@@H]3CCc4cc(O)ccc4[C@H]3CC[C@@]21C [Ethinyl Estradiol] | -1.62
O=S(=O)(c1ccccc1)N(CC(F)(F)F)c1ccc(C(O)(C(F)(F)F)C(F)(F)F)cc1 | 2.96
O=C(O)c1ccc(N2C(=O)/C(=C\c3ccc(-c4ccc([N+](=O)[O-])cc4)o3)C=C2c2ccccc2)cc1 | 0.469
COC(=O)N[C@H](C(=O)N1CCC[C@H]1c1ncc(-c2ccc(-c3ccc(-c4cnc([C@@H]5CCCN5C(=O)[C@@H](NC(=O)OC)C(C)C)[nH]4)cc3)cc2)[nH]1)C(C)C | -5.73
CCCCN(Cc1ccc(C(=O)NO)cc1)C(=O)Nc1ccccc1 [Nexturastat A] | -11.5
Nc1nc(N)c2nc(CNc3ccc(C(=O)N[C@@H](CCC(=O)O)C(=O)O)cc3)cnc2n1 [Aminopterin] | -2.62

SMILES | total cell number
CC(C(=O)O)c1cccc(C(=O)c2ccccc2)c1 (configuration not stated) [Ketoprofen] | -0.826 ± 2
CC[C@H](NC(=O)c1c(C)c(-c2ccccc2)nc2ccccc12)c1ccccc1 | -1.73
NCC(O)(CS(=O)(=O)O)c1ccc(Cl)cc1 (configuration not stated) [2-Hydroxysaclofen] | -0.987
CCOC(=O)c1ncn2c1CN(C)C(=O)c1cc(F)ccc1-2 [Flumazenil] | -0.805 ± 0.66
O=NN(CCCl)C(=O)NCCCl [Carmustine] | -1.95
CC1=C(C(=O)Nc2cc3cn[nH]c3cc2F)C(c2ccc(C(F)(F)F)cc2)CC(=O)N1 (configuration not stated) | 3.97
CNC(=O)c1ccccc1Nc1nc(Nc2ccc(N3CCOCC3)cc2OC)ncc1Cl | -12.2
Cc1cc(C)c2c(c1)[C@@H](N(Cc1cc(C(F)(F)F)cc(C(F)(F)F)c1)c1nnn(C)n1)CCCN2C[C@H]1CC[C@H](C(=O)O)CC1 | 0.763
CCOC(=O)[C@H](CCc1ccccc1)N[C@H]1CCCN2CCC[C@@H](C(=O)O)N2C1=O [Cilazapril Monohydrate] | 0.563
COc1cc(C(C)=O)ccc1OCCCN1CCC(c2noc3cc(F)ccc23)CC1 [Iloperidone] | -2.6
CCCC1O[C@@H]2C[C@H]3[C@@H]4CCC5=CC(=O)C=C[C@]5(C)[C@H]4[C@@H](O)C[C@]3(C)[C@]2(C(=O)CO)O1 (some centres not stated) [Budesonide] | 10.6 ± 9.4
CCCCCCCCCCCCCCCCCCOCC(COP(=O)([O-])OCC[N+](C)(C)C)OC (configuration not stated) | -1.65
CN1[C@@H]2CC[C@H]1CC(OC(=O)c1c[nH]c3ccccc13)C2 (some centres not stated) [3-Tropanyl-indole-3-carboxylate hydrochloride] | -2.23
c1cc(-c2cnn3cc(-c4ccc(N5CCNCC5)cc4)cnc23)c2cccnc2c1 | -16.3
COC(=O)c1c(C)[nH]c(C)c1C(=O)c1ccccc1Cc1ccccc1 | -1.51
CC1(C)S[C@@H]2[C@H](NC(=O)[C@H](C(=O)O)c3ccsc3)C(=O)N2[C@H]1C(=O)O [Ticarcillin sodium] | -1.02
O=C(c1ccc2c(c1)OCCO2)N1CCCCC1 | -1.37
Cc1cc(NS(=O)(=O)c2ccc(N)cc2)no1 [Sulfamethoxazole] | -2.51
O=C1CN(/N=C/c2ccc(-c3ccc([N+](=O)[O-])cc3)o2)C(=O)N1 [Dantrolene sodium] | -0.604
COc1cc(N2CCC(N)CC2)ccc1Nc1ncc(Cl)c(-c2c[nH]c3ccccc23)n1 | -16.3
CC(C)[C@H]1c2ccc(F)cc2CC[C@@]1(CCN(C)CCCc1nc2ccccc2[nH]1)OC(=O)C1CC1 | -11.4
COc1cc(O)c2c(c1)C(=O)c1cc(C)cc(O)c1C2=O [Rheochrysidin] | -1.42
CCOC(=O)n1ccn(C)c1=S [Carbimazole] | -1.51
O=c1cc2c(=O)oc3cc(O)c(O)oc3c2c(O)c1O [Galloflavin potassium] | -1.51
